63 sequences from publication PMC12820563 can be followed below.

Some of the results follow. The list includes weakly bound sequences.

The target in this experiment is T1, MBP-FoxP3dN (UniProt Q99JB6).
T1 sequence: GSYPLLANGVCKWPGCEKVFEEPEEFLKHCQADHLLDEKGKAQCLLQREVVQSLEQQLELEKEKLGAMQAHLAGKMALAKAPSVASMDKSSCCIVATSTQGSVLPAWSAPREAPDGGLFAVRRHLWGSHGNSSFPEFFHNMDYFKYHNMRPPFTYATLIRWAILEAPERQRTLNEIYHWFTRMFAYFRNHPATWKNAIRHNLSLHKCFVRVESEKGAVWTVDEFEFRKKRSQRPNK
The experiment is described as follows: PD-seq (MBP pull-down with sequencing). The conditions noted are these: 20 mM Tris-HCl pH 7.5, 100 mM NaCl, 1.5 mM MgCl2, 0.4 uM protein, 0.1 uM dsDNA library, 30 min, room temperature, amylose pull-down; high values mean tight binding; double strand, one strand shown.
For the sequence “GATGATTGTTCTCCCAGCTGATGAATTGGTTTAATCGAGTAAACAAATTTTCCTAATCTTTCTGTTCAAGCGCCATCTAC”, the binding signal (RPM ratio (pull-down/input)) was 0.677.
To “GATGATTGTTCTCCCAGCTGATGAATTACCAATCTCGAGTAAACAAATTTTCCTAATCTTTCTGTTCAAGCGCCATCTAC” belongs 0.415; to “GATGATTGTTCTCCCAGCTGATGAATTAAAATGGTCGAGTAAACAAATTTTCCTAATCTTTCTGTTCAAGCGCCATCTAC”, 0.25.
For “GATGATTGTTCTCCCAGCTGATGAATTATTCAACTCGAGTAAACAAATTTTCCTAATCTTTCTGTTCAAGCGCCATCTAC”, the binding signal (RPM ratio (pull-down/input)) was 0.381.
Then “GATGATTGTTCTCCCAGCTGATGAATTACAGCTTTCGAGTAAACAAATTTTCCTAATCTTTCTGTTCAAGCGCCATCTAC”, with 0.989; and “GATGATTGTTCTCCCAGCTGATGAATTATCATGATCGAGTAAACAAATTTTCCTAATCTTTCTGTTCAAGCGCCATCTAC”, with 0.375; and “GATGATTGTTCTCCCAGCTGATGAATTCCCTATTTCGAGTAAACAAATTTTCCTAATCTTTCTGTTCAAGCGCCATCTAC”, with 0.333.
To “GATGATTGTTCTCCCAGCTGATGAATTTAAGGCGTCGAGTAAACAAATTTTCCTAATCTTTCTGTTCAAGCGCCATCTAC” belongs 0.571; to “GATGATTGTTCTCCCAGCTGATGAATTTAACCTCTCGAGTAAACAAATTTTCCTAATCTTTCTGTTCAAGCGCCATCTAC”, 0.418.
Turning to “GATGATTGTTCTCCCAGCTGATGAATTAAATGATTCGAGTAAACAAATTTTCCTAATCTTTCTGTTCAAGCGCCATCTAC”, the binding signal (RPM ratio (pull-down/input)) came out at 0.636.
To “GATGATTGTTCTCCCAGCTGATGAATTTTTTAGGTCGAGTAAACAAATTTTCCTAATCTTTCTGTTCAAGCGCCATCTAC” belongs 0.197; to “GATGATTGTTCTCCCAGCTGATGAATTTCAATCGTCGAGTAAACAAATTTTCCTAATCTTTCTGTTCAAGCGCCATCTAC”, 0.415.
To “GATGATTGTTCTCCCAGCTGATGAATTGTAGAACTCGAGTAAACAAATTTTCCTAATCTTTCTGTTCAAGCGCCATCTAC” belongs 0.291; to “GATGATTGTTCTCCCAGCTGATGAATTAGATCACTCGAGTAAACAAATTTTCCTAATCTTTCTGTTCAAGCGCCATCTAC”, 0.483; to “GATGATTGTTCTCCCAGCTGATGAATTGGATGGCTCGAGTAAACAAATTTTCCTAATCTTTCTGTTCAAGCGCCATCTAC”, 0.46.
Then “GATGATTGTTCTCCCAGCTGATGAATTACGCAGGTCGAGTAAACAAATTTTCCTAATCTTTCTGTTCAAGCGCCATCTAC”, with 0.804.
Regarding “GATGATTGTTCTCCCAGCTGATGAATTCTCCAGCTCGAGTAAACAAATTTTCCTAATCTTTCTGTTCAAGCGCCATCTAC”, the binding signal (RPM ratio (pull-down/input)) was determined as 0.232.
In the case of “GATGATTGTTCTCCCAGCTGATGAATTTGATGAGTCGAGTAAACAAATTTTCCTAATCTTTCTGTTCAAGCGCCATCTAC”, the binding signal (RPM ratio (pull-down/input)) was 0.974.
Then “GATGATTGTTCTCCCAGCTGATGAATTCCCCACTTCGAGTAAACAAATTTTCCTAATCTTTCTGTTCAAGCGCCATCTAC”, with 0.251; and “GATGATTGTTCTCCCAGCTGATGAATTAGGATTGTCGAGTAAACAAATTTTCCTAATCTTTCTGTTCAAGCGCCATCTAC”, with 1.04.
Then “GATGATTGTTCTCCCAGCTGATGAATTCACCCCATCGAGTAAACAAATTTTCCTAATCTTTCTGTTCAAGCGCCATCTAC”, with 0.364; and “GATGATTGTTCTCCCAGCTGATGAATTCGGGCTATCGAGTAAACAAATTTTCCTAATCTTTCTGTTCAAGCGCCATCTAC”, with 0.511; and “GATGATTGTTCTCCCAGCTGATGAATTTTTCTCTTCGAGTAAACAAATTTTCCTAATCTTTCTGTTCAAGCGCCATCTAC”, with 0.211.
To “GATGATTGTTCTCCCAGCTGATGAATTTTTGCATTCGAGTAAACAAATTTTCCTAATCTTTCTGTTCAAGCGCCATCTAC” belongs 6.58.
As to “GATGATTGTTCTCCCAGCTGATGAATTTCCGGACTCGAGTAAACAAATTTTCCTAATCTTTCTGTTCAAGCGCCATCTAC”, the binding signal (RPM ratio (pull-down/input)) came out at 0.182.
To “GATGATTGTTCTCCCAGCTGATGAATTCTAGCAGTCGAGTAAACAAATTTTCCTAATCTTTCTGTTCAAGCGCCATCTAC” belongs 0.398.
Then “GATGATTGTTCTCCCAGCTGATGAATTGCTTACCTCGAGTAAACAAATTTTCCTAATCTTTCTGTTCAAGCGCCATCTAC”, with 2.08.
To “GATGATTGTTCTCCCAGCTGATGAATTAAGACGATCGAGTAAACAAATTTTCCTAATCTTTCTGTTCAAGCGCCATCTAC” belongs 0.207; to “GATGATTGTTCTCCCAGCTGATGAATTCAGATGCTCGAGTAAACAAATTTTCCTAATCTTTCTGTTCAAGCGCCATCTAC”, 0.894.
“GATGATTGTTCTCCCAGCTGATGAATTATTTAGCTCGAGTAAACAAATTTTCCTAATCTTTCTGTTCAAGCGCCATCTAC”: the binding signal (RPM ratio (pull-down/input)) is 0.932.
With “GATGATTGTTCTCCCAGCTGATGAATTAATTGCTTCGAGTAAACAAATTTTCCTAATCTTTCTGTTCAAGCGCCATCTAC”, the binding signal (RPM ratio (pull-down/input)) stood at 1.38.
Then “GATGATTGTTCTCCCAGCTGATGAATTTGGGGCTTCGAGTAAACAAATTTTCCTAATCTTTCTGTTCAAGCGCCATCTAC”, with 0.471.
In the case of “GATGATTGTTCTCCCAGCTGATGAATTCCGAATGTCGAGTAAACAAATTTTCCTAATCTTTCTGTTCAAGCGCCATCTAC”, the binding signal (RPM ratio (pull-down/input)) came to 0.75.
Regarding “GATGATTGTTCTCCCAGCTGATGAATTGGTACAGTCGAGTAAACAAATTTTCCTAATCTTTCTGTTCAAGCGCCATCTAC”, the binding signal (RPM ratio (pull-down/input)) came out at 0.431.
Take “GATGATTGTTCTCCCAGCTGATGAATTGTAAGCATCGAGTAAACAAATTTTCCTAATCTTTCTGTTCAAGCGCCATCTAC”: the binding signal (RPM ratio (pull-down/input)) was 1.68.
Then “GATGATTGTTCTCCCAGCTGATGAATTGACATCTTCGAGTAAACAAATTTTCCTAATCTTTCTGTTCAAGCGCCATCTAC”, with 0.613.
Then “GATGATTGTTCTCCCAGCTGATGAATTGTACAGCTCGAGTAAACAAATTTTCCTAATCTTTCTGTTCAAGCGCCATCTAC”, with 0.375.
In the case of “GATGATTGTTCTCCCAGCTGATGAATTTTTAGGGTCGAGTAAACAAATTTTCCTAATCTTTCTGTTCAAGCGCCATCTAC”, the binding signal (RPM ratio (pull-down/input)) came out at 0.192.
To “GATGATTGTTCTCCCAGCTGATGAATTCAGGTCTTCGAGTAAACAAATTTTCCTAATCTTTCTGTTCAAGCGCCATCTAC” belongs 0.457.
Then “GATGATTGTTCTCCCAGCTGATGAATTCCGATGCTCGAGTAAACAAATTTTCCTAATCTTTCTGTTCAAGCGCCATCTAC”, with 0.797; and “GATGATTGTTCTCCCAGCTGATGAATTAGCCAGTTCGAGTAAACAAATTTTCCTAATCTTTCTGTTCAAGCGCCATCTAC”, with 0.285; and “GATGATTGTTCTCCCAGCTGATGAATTGGTCCTATCGAGTAAACAAATTTTCCTAATCTTTCTGTTCAAGCGCCATCTAC”, with 0.443.
To “GATGATTGTTCTCCCAGCTGATGAATTCAGCTCTTCGAGTAAACAAATTTTCCTAATCTTTCTGTTCAAGCGCCATCTAC” belongs 0.427; to “GATGATTGTTCTCCCAGCTGATGAATTCCTCAAATCGAGTAAACAAATTTTCCTAATCTTTCTGTTCAAGCGCCATCTAC”, 0.229.
As for “GATGATTGTTCTCCCAGCTGATGAATTGACCGCTTCGAGTAAACAAATTTTCCTAATCTTTCTGTTCAAGCGCCATCTAC”, the binding signal (RPM ratio (pull-down/input)) was 0.355.
To “GATGATTGTTCTCCCAGCTGATGAATTGTCCGCGTCGAGTAAACAAATTTTCCTAATCTTTCTGTTCAAGCGCCATCTAC” belongs 0.455; to “GATGATTGTTCTCCCAGCTGATGAATTTACATATTCGAGTAAACAAATTTTCCTAATCTTTCTGTTCAAGCGCCATCTAC”, 0.801; to “GATGATTGTTCTCCCAGCTGATGAATTCATTTAGTCGAGTAAACAAATTTTCCTAATCTTTCTGTTCAAGCGCCATCTAC”, 1.44.
As for “GATGATTGTTCTCCCAGCTGATGAATTTTATACCTCGAGTAAACAAATTTTCCTAATCTTTCTGTTCAAGCGCCATCTAC”, the binding signal (RPM ratio (pull-down/input)) was 0.471.
Take “GATGATTGTTCTCCCAGCTGATGAATTGGAAGATTCGAGTAAACAAATTTTCCTAATCTTTCTGTTCAAGCGCCATCTAC”: the binding signal (RPM ratio (pull-down/input)) came to 0.253.
In the case of “GATGATTGTTCTCCCAGCTGATGAATTCCGCACCTCGAGTAAACAAATTTTCCTAATCTTTCTGTTCAAGCGCCATCTAC”, the binding signal (RPM ratio (pull-down/input)) was 1.64.
With “GATGATTGTTCTCCCAGCTGATGAATTGGGTGACTCGAGTAAACAAATTTTCCTAATCTTTCTGTTCAAGCGCCATCTAC”, the binding signal (RPM ratio (pull-down/input)) stood at 0.749.
To “GATGATTGTTCTCCCAGCTGATGAATTTGGGGCCTCGAGTAAACAAATTTTCCTAATCTTTCTGTTCAAGCGCCATCTAC” belongs 0.606; to “GATGATTGTTCTCCCAGCTGATGAATTAGGGGGCTCGAGTAAACAAATTTTCCTAATCTTTCTGTTCAAGCGCCATCTAC”, 0.431; to “GATGATTGTTCTCCCAGCTGATGAATTGCTTGAATCGAGTAAACAAATTTTCCTAATCTTTCTGTTCAAGCGCCATCTAC”, 0.482.
To “GATGATTGTTCTCCCAGCTGATGAATTCCGGGCTTCGAGTAAACAAATTTTCCTAATCTTTCTGTTCAAGCGCCATCTAC” belongs 0.32.
As for “GATGATTGTTCTCCCAGCTGATGAATTGGACACTTCGAGTAAACAAATTTTCCTAATCTTTCTGTTCAAGCGCCATCTAC”, the binding signal (RPM ratio (pull-down/input)) stood at 0.402.
To “GATGATTGTTCTCCCAGCTGATGAATTCGGCACCTCGAGTAAACAAATTTTCCTAATCTTTCTGTTCAAGCGCCATCTAC” belongs 1.03; to “GATGATTGTTCTCCCAGCTGATGAATTGCTTCGGTCGAGTAAACAAATTTTCCTAATCTTTCTGTTCAAGCGCCATCTAC”, 0.423.
To “GATGATTGTTCTCCCAGCTGATGAATTATCACGCTCGAGTAAACAAATTTTCCTAATCTTTCTGTTCAAGCGCCATCTAC” belongs 0.436; to “GATGATTGTTCTCCCAGCTGATGAATTAGTGTTATCGAGTAAACAAATTTTCCTAATCTTTCTGTTCAAGCGCCATCTAC”, 2.5; to “GATGATTGTTCTCCCAGCTGATGAATTATGGGGGTCGAGTAAACAAATTTTCCTAATCTTTCTGTTCAAGCGCCATCTAC”, 0.512.
Then “GATGATTGTTCTCCCAGCTGATGAATTAATATTTTCGAGTAAACAAATTTTCCTAATCTTTCTGTTCAAGCGCCATCTAC”, with 0.703.
